The source gives no read counts; variants with many changes may rest on few reads.

B1: CPEB3 Ribozyme (parent)
chain: UAACAGGGGGCCACAGCAGAAGCGUUCACGUCGCAGCCCCUGUCAGAUUCUGGUGAAUCUGCGAAUUCUGCUGUAUAUCUC

The variants in the series derive from B1. As to the kind of experiment: self-cleavage, relative activity (ratio to wild type); higher = more cleavage; in vitro, sequencing. The method in brief: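 Relative activity compares each variant's cleaved/total read fraction with that of the unmutated ribozyme. To get these fractions, barcoded CPEB3 ribozyme libraries from rounds of error-prone PCR were transcribed with T7 RNA polymerase for 5 hours at 37°C and then given 15 min of DNase I treatment before EDTA was added. The RNAs were reverse transcribed with template switching and sequenced on Illumina, and DNA sequencing linked barcodes to variants. A minimum of 5 reads applied, and three batches were averaged.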
UAACAGGGGGCCACAGCAGAAGCGUUCACGUCGCUGCCCCUGUCAGAUUCUGGUGAGUCUGAGGAUUCUGCUGUAUAGCUC [A35U A57G C62A A64G U78G]: the self-cleavage stood at 0.06.

UAACAGGGGGCCACAGCAGAAGCGUUCACGUCGCUGCCCCUGUCAGAUUCUGGUGAGUCUGCGAAUUCUGCUGCAUAUCUC [A35U A57G U74C]: the self-cleavage was found to be 0.68.

Consider UAACAGGGGGCCACAGCAGAAGCGUUCACGUCGCUGCACCUGUCAGAUUCUGGUGAAUCAGCGAAUUCUGCUGAAUAUCUC [A35U C38A U60A U74A], for which the self-cleavage is 0.18.

For the variant UAACAGGGGGCCACAGCAGAAGCGUUCACGUCGCUGCCGCUGUCAGAUUCUGGAGAAUCUGCGAAUCCUGCUGUAUAUCUC [A35U C39G U54A U67C], the self-cleavage turned out to be 0.05.

As to UAACAGGGGGCCACAGCAGAAGCGUUCACGUCGCUGCCCCUGUCAGAUUCUGGUGAAUCUGCGAUUUCUGCUGUAUAACUC [A35U A65U U78A], the self-cleavage came to 0.16.

In the case of UAACAGGGGGCCACAGCAGAAGCGUUCACGUCGCUGCCCCUGUCAGAUUCUGGUGCAUCUGCGAAUUCUGCCGUAUAUCUC [A35U A56C U72C], the self-cleavage is 0.13.

UAACAGGGGGCCACAGCAGAAGCGUUCACGUCGCUGCCCCUGUCAGAUUCUGGUGGAUCAGCGAAUUCUGCUGUAUAUCUU [A35U A56G U60A C81U]: the self-cleavage was 0.08.

For UAACAGGGGGCCACAGCAGAAGCGUUCACGUCGCUGCCCCUGUCAGAUUCUGGUGGAUCUGCGAACUCUGCUGUAUAUCUC [A35U A56G U66C], the self-cleavage amounted to 0.27.

Regarding UAACAGGGGGCCACAGCAGAAGCGUUCACGUCGCUGCCCCUGUCAGAUUCUGGUGAAUCUGCGGAUUCUGCUGGAUAUCUC [A35U A64G U74G], the self-cleavage stood at 0.69.

Take UAACAGGGGGCCACAGCAGAAGCGUUCACGUCGCUGCCCCUGUCAGGUUCUGGUGAAUCUGUGGAUUCAGCUGUAUAUCUC [A35U A47G C62U A64G U69A]: the self-cleavage was determined as 0.13.

UAACAGGGGGCCACAGCAGAAGCGUUCACGUCGCUGCCCCUGUCUGAUUCUGGUGAAUCUGCGAAUUCAGCUGUAUAUCUC [A35U A45U U69A]: the self-cleavage was determined as 0.12.

Take UAACAGGGGGCCACAGCAGAAGCGUUCACGUCGCUGCCCCUGUCAGAUUCUGGUGAGUCUGCGAAUUCUGUUGUAUAUCUC [A35U A57G C71U]: the self-cleavage was 0.17.

Regarding UAACAGGGGGCCACAGCAGAAGCGUUCACGUCGCUGCCCCUGUCAGGUUCUGGUGAAUCUGCGGAUUCUGCUGUAUAUCUC [A35U A47G A64G], the self-cleavage turned out to be 0.48.

For the variant UAACAGGGGGCCACAGCAGAAGCGUUCACGUCGCUGCCCCUGUCAGAUUCUGGUGAAUCUGCGAGUUCAGCUGUACAUCUC [A35U A65G U69A U76C], the self-cleavage was found to be 0.12.

For UAACAGGGGGCCACAGCAGAAGCGUUCACGUCGCUGCCCCUGUCAGAUUCUGGUGGAUCUGCGAAUUCAGCUGUAUAUCCC [A35U A56G U69A U80C], the self-cleavage is 0.26.

Take UAACAGGGGGCCACAGCAGAAGCGUUCACGUCGCUGCCCCUGUCAGAUUCUGGUGGGUCUGCGAAUAUUGCUGUAUAUCUC [A35U A56G A57G U67A C68U]: the self-cleavage was 0.06.

In the case of UAACAGGGGGCCACAGCAGAAGCGUUCACGUCGCUGCCCCUGUCAGAUUCUGGUGAAUCUGCGGACUCUCCUGUAUAUCUC [A35U A64G U66C G70C], the self-cleavage came out at 0.1.

UAACAGGGGGCCACAGCAGAAGCGUUCACGUCGCUGCUCCUGUCAGAUUCUGGUGAAUCUGCGUAUUCCGCUGUAUAUCUC [A35U C38U A64U U69C]: the self-cleavage is 0.09.

Take UAACAGGGGGCCACAGCAGAAGCGUUCACGUCGCUGCCCCUGUCAGAUUCUGGUGAGUCUGCGAAUUCUGCAGUACAUCUC [A35U A57G U72A U76C]: the self-cleavage turned out to be 0.18.

Take UAACAGGGGGCCACAGCAGAAGCGUUCACGUCGCUGCUCCUGUCAGAUUCCGGUGAAUCUGCGAAUUCUGCAGUAUAUCUC [A35U C38U U51C U72A]: the self-cleavage worked out at 0.15.

Regarding UAACAGGGGGCCACAGCAGAAGCGUUCACGUCGCUGCUCCUGUAAGAUUCUGGUGAAUCUGCGAAUUCUGCCGUAUACCUC [A35U C38U C44A U72C U78C], the self-cleavage amounted to 0.16.

In the case of UAACAGGGGGCCACAGCAGAAGCGUUCACGUCGCUGCCCCUGUCGGACUCUGGUGAAUCUGCGAAUUCUGCAGUAUAUCUC [A35U A45G U48C U72A], the self-cleavage was 0.12.

Take UAACAGGGGGCCACAGCAGAAGCGUUCACGUCGCUGCCCCUGUCAGAUUCUGGUGGUUCUGCGAAUUCUGCUGUAUAUCUC [A35U A56G A57U]: the self-cleavage came out at 0.44.

For UAACAGGGGGCCACAGCAGAAGCGUUCACGUCGCUGCCCCUGUCAGAUUCUGGUGAGUCUGCGAAUUCUGCUGUAUAUCCC [A35U A57G U80C], the self-cleavage came to 0.71.

As to UAACAGGGGGCCACAGCAGAAGCGUUCACGUCGCUGCCCCUGUCUGAUUCUGGUGAAUCGGCGAAUUCUGCUGUAUAUCUC [A35U A45U U60G], the self-cleavage worked out at 0.45.

As for UAACAGGGGGCCACAGCAGAAGCGUUCACGUCGCUGCCCCUGUCAGAUUCUGGUGAAUCUGCGGAUUCUGCUAUAUAUCUC [A35U A64G G73A], the self-cleavage was found to be 0.77.

Take UAACAGGGGGCCACAGCAGAAGCGUUCACGUCGCUGCCCCUGUCAGAUUCUGGUGAAUCUGCGUAUUCCGCUGUAAAUCUC [A35U A64U U69C U76A]: the self-cleavage came to 0.1.

Consider UAACAGGGGGCCACAGCAGAAGCGUUCACGUCGCUGCCCCUGUCAGAUUCUGGUGAAUCUGCGGUUUCUGCUGUACUUCUC [A35U A64G A65U U76C A77U], for which the self-cleavage was 0.08.

Regarding UAACAGGGGGCCACAGCAGAAGCGUUCACGUCGCUGCCCCUGUCUGAUUCUGGUGAAUCUGAGAAUUCUGCUGUAUAUCUC [A35U A45U C62A], the self-cleavage was determined as 0.14.

Take UAACAGGGGGCCACAGCAGAAGCGUUCACGUCGCUGCCCCUGUCUGAUUCUGGUGAGUCUGCGAAUUCUGCUGUGUAUCUC [A35U A45U A57G A75G]: the self-cleavage is 0.11.

As to UAACAGGGGGCCACAGCAGAAGCGUUCACGUCGCUGCCCCUGUCGGACUCUGGUGAGUCUGCGAAUUCAGCAGUAUAUCUC [A35U A45G U48C A57G U69A U72A], the self-cleavage is 0.04.

For the variant UAACAGGGGGCCACAGCAGAAGCGUUCACGUCGCUGCCCCUGUCUGAUUCUGGUGAAUCUGCGAAUUCCGCUGCAUAUCUC [A35U A45U U69C U74C], the self-cleavage is 0.14.

On to UAACAGGGGGCCACAGCAGAAGCGUUCACGUCGCUGCCCCUGUCAGAUUCUGGUGUAUCUGCGAAUUCUGCUUUAUAUCGC [A35U A56U G73U U80G], for which the self-cleavage was 0.45.

For the variant UAACAGGGGGCCACAGCAGAAGCGUUCACGUCGCUGCCCCUGUCAGAUUCUGGUGGAUCUGCGCAUUCUGCUGUAUAUCUC [A35U A56G A64C], the self-cleavage worked out at 0.15.
